# The supplement of paper PMC7125110
# ± gives the standard error. Variants at the background level are over-represented here.
# B1: glmS ribozyme (parent)
# chain: AUAAAAGCGCCAGAACUACAGAAAUGUAGUUGACGAGGAGGAGGUUUAUCGAAUUUUCGGCGGAUGCCUCCAAA
# Key:
# Conditions in all cases: with glucosamine-6-phosphate
# glucosamine-6-phosphate [1] = variants of: B1; assay: self-cleavage kobs at 640 uM GlcN6P; higher = faster cleavage; RNA array
# Procedure, shortened: (§1)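 Barcoded ribozyme variants on sequenced MiSeq chips were transcribed in situ by E. coli RNA polymerase and followed at 37 °C through a hybridised Cy3 probe. Glucosamine-6-phosphate at 40 μM to 10 mM in HEPES/KCl/Mg(OAc)2 buffer was flowed in, and tiles were imaged over ~14 h. Signals were normalised to baseline and to non-cleaving reference variants, and per-tile medians were fit to one- or two-exponential decays to give kobs. Weighted Michaelis–Menten fits across concentrations gave kcat and KM.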
# glucosamine-6-phosphate [2] = variants of: B1; assay: self-cleavage kobs at 160 uM GlcN6P; higher = faster cleavage; RNA array
# Procedure, shortened: as §1
# glucosamine-6-phosphate [3] = variants of: B1; assay: self-cleavage kobs at 2500 uM GlcN6P; higher = faster cleavage; RNA array
# Procedure, shortened: as §1
# glucosamine-6-phosphate [4] = variants of: B1; assay: self-cleavage kobs at 10000 uM GlcN6P; higher = faster cleavage; RNA array
# Procedure, shortened: as §1
Variant,self-cleavage kobs at 640 uM GlcN6P (glucosamine-6-phosphate [1]) [s⁻¹],self-cleavage kobs at 160 uM GlcN6P (glucosamine-6-phosphate [2]) [s⁻¹],self-cleavage kobs at 2500 uM GlcN6P (glucosamine-6-phosphate [3]) [s⁻¹],self-cleavage kobs at 10000 uM GlcN6P (glucosamine-6-phosphate [4]) [s⁻¹]
G7U G35A G37C U46G U47A C70G,< 1e-05,< 1e-05,< 1e-05,
G7C G38U A53G U54G,< 1e-05,< 1e-05,,
G7U G43U C68U,< 1e-05,< 1e-05,< 1e-05,< 1e-05
G7U C8U G40U G62C,< 1e-05,,,
C8A A12C G44U,< 1e-05,< 1e-05,< 1e-05,
G7U A15U U47G,< 1e-05,,,
G7U G9U U47C U55G G62C,< 1e-05,,,
C8A C10U U55C A64U,< 1e-05,< 1e-05,< 1e-05,
C8A C11A A39U,< 1e-05,,< 1e-05,
G7U A15U G43C,< 1e-05,,< 1e-05,< 1e-05
C8A A33C C58U,< 1e-05,,< 1e-05,
G7U C70A,0.000596 ± 0.00023,,,
C8A A64C,< 1e-05,,< 1e-05,
G7U G40U,< 1e-05,< 1e-05,< 1e-05,< 1e-05
G7U U54G,< 1e-05,< 1e-05,< 1e-05,< 1e-05
G7U C8G G59C,< 1e-05,< 1e-05,< 1e-05,
G7U C10U,< 1e-05,,< 1e-05,
C8A U56G,< 1e-05,< 1e-05,< 1e-05,< 1e-05
G7U G35U A52C C68A,< 1e-05,,< 1e-05,
G7C G29C U30C A39C G51U C70G,< 1e-05,,,
G7C C16A U31A U65G,< 1e-05,< 1e-05,< 1e-05,
G7C G32A G41U,< 1e-05,< 1e-05,,
G7U U57C C71U,< 1e-05,,< 1e-05,
C8A A53U C68U,< 1e-05,,,
G7U C10U A33C,< 1e-05,,,
G7U A52C C68U,< 1e-05,,< 1e-05,
